In ChEMBL document CHEMBL4888484, “Replenishing the malaria drug discovery pipeline: Screening and hit evaluation of the MMV Hit Generation Library 1 (HGL1) against asexual blood stage Plasmodium falciparum ,using a nano luciferase reporter read-out” (2022):
Several values for one entry are separate records, joined by “and”; a condition that tells them apart may be missing. Identical values can stand only once. Hit rate of the full screen: of about 150,000 compounds, about 540 (0.36%) showed an effect of 50% or more. The list shows a part of the results.

Tested on: Plasmodium falciparum
Test: Primary screen in NF54 nanoGlo assay, in single point, at 2uM, 72h; a lower Z score goes with more inhibition
Assay type: functional, Erythrocyte
Conditions: timepoint 72 hour

Row | SMILES | % Inhibition | Z score | % Inhibition (2 µM)
1 | O=C(c1cc[n+]([O-])cc1)N1CC[C@@]2(CCCN(CCC3CCCCC3)C2)C1 | -2% | 0.28 | –
2 | CC(C(=O)N1CC(O)(c2nccn2C)C1)=C1CCCC1 | -5% | 0.8 | –
3 | CN(C[C@H]1CCCN1C(=O)c1ccc(Cl)c(N)c1Cl)C(=O)OC(C)(C)C | -9% | 0.96 | –
4 | Cc1cc(N[C@H]2CCc3nc(C)nn3C2)nc(N)n1 | -2% | 0.33 | –
5 | COc1ccc(C)cc1C(=O)NCC1CCN(Cc2c[nH]cn2)CC1 | -7% | 0.87 | –
6 | O=C(NCc1cc(C2CC2)[nH]n1)NCC1(O)CCCCC1 | -15% | 1.42 | –
7 | Cc1cccc(-c2noc(N3CCOCC3)c2CN(Cc2ccccc2)C(=O)c2ccc(Cl)cc2)c1 | -2% | 0.17 | –
8 | COc1ccc(CC(=O)NCc2ccc3c(c2)N(C(=O)c2ccccc2)[C@@H](C)C3)cc1OC | 13% | -1.5 | –
9 | CN1CCCC1CNC(=O)C1CCCN(C(=O)c2ccc3[nH]ncc3c2)C1 (configuration not stated) | -12% | 2.41 | –
10 | CN(C(=O)CCc1ccc2c(c1)OCO2)[C@H]1CCS(=O)(=O)C1 | -11% | 1 | –
11 | COc1ccc(S(=O)(=O)C2CN(C(=O)c3ccsc3)C2)cc1 | -18% | 2.32 | –
12 | CCC(C(=O)N1CCc2cc(OC)c(OC)cc2C1c1ccc(OC)c(OC)c1)c1ccccc1 (configuration not stated) | 0% | 0.08 | –
13 | CN(Cc1ccc(-n2cccn2)cc1)[C@H]1CCC(=O)N(Cc2ccc(F)c(F)c2)CC1 | -8% | 0.9 | –
14 | Cc1noc(C)c1-c1ccc(S(=O)(=O)N(C)Cc2ncon2)s1 | -13% | 1.85 | –
15 | Cc1nn(C)c(C)c1CCC(=O)NCc1nc2cc(C(F)(F)F)ccc2n1C | 5% | -1.02 | –
16 | Cc1c(-c2cc(C(F)(F)F)n(CCC#N)n2)cnn1C | 1% | -0.11 | –
17 | OC[C@H](Cc1ccc(O)cc1)NC1CCCC(C(F)(F)F)C1 (some centres not stated) | -2% | 0.21 | –
18 | CN(C)c1cc(C(C)(C)C)c(O)c(C(C)(C)C)c1 | – | – | -4% and 3%
19 | Cc1noc(C)c1CC(=O)Nc1ccc(Cl)cn1 | 4% | -0.55 | –
20 | Cc1ccc(-c2nccn2Cc2cn(C)nc2C)cc1C | -15% | 2.19 | –
21 | O=C(NCc1cccnc1)[C@@H]1[C@@H]2C=C[C@@]3(CN(Cc4ccccc4Cl)C(=O)[C@H]13)O2 | -14% | 2.36 | –

Row | SMILES | % Inhibition | Z score | % Inhibition (2 µM)
22 | Cc1cc(=O)n2nc(-c3cccc4ccccc34)nc2[nH]1 | 30% | -3.41 | –
23 | COc1ccc(-n2c(=O)c(C(=O)NCC3CC3)c(O)c3cccnc32)cc1 | -17% | 2.22 | –
24 | COc1ccc(S(=O)(=O)N2C[C@@H]3CCCN3c3cc(C(F)(F)F)ccc32)cc1 | 37% | -4.79 | –
25 | COc1ccc(COC(=O)c2ccc(C(F)(F)F)nc2)cn1 | -13% | 1.66 | –
26 | CC[C@@H](C(=O)NCc1ccc(C)cc1)n1cc(-c2nc(C3CC3)no2)ccc1=O | -14% | 2.61 | –
27 | COc1ccc(C(=O)O)nc1-c1cccc(C(=O)N2C[C@H]3CCC[C@@H](C3)C2)c1 | -2% | 0.27 | –
28 | Cc1ccc([C@H](CNC(=O)C(C)(C)n2cccn2)N2CCCC2)o1 | -2% | 0.24 | –
29 | O=C(CCCc1ccccc1)Nc1cnoc1 | -8% | 1.28 | –
30 | CCc1c(C)nc(N)nc1NCC(=O)NC1CC1 | 1% | -0.28 | –
31 | O=C(Nc1cccc(-c2cnc[nH]2)c1)c1cccs1 | -13% | 1.74 | –
32 | COCCNC(=O)c1nnc(-c2oc3ccc(C)cc3c2C)o1 | -12% | 1.92 | –
33 | Cc1cc(C)nc(-c2ccccc2N(C)C)n1 | -14% | 1.84 | –
34 | Cn1nccc1[C@H](O)c1cc2n(n1)CCCN(C1CCCCCC1)C2 | 0% | -0.04 | –
35 | CCOCCC1(C(=O)Nc2nc(COC)cs2)CCCC1 | -10% | 1.36 | –
36 | COc1ccc([C@@H]2CCCN2C(=O)c2cnn(C)c2C)cc1OC | -3% | 0.28 | –
37 | COC(=O)C1(N)CC(COCc2ccccc2)C1 (configuration not stated) | 20% | -2.38 | –
38 | COCCn1nc2n(c1=O)CC[C@@H](CC(=O)Nc1ccccc1CCc1ccccn1)CC2 | -3% | 0.45 | –
39 | COc1ccccc1-c1c(C)nn2c(N3CCN(c4ccc(Cl)cc4)CC3)cc(C)nc12 | -1% | 0.16 | –
40 | CCCn1nc(-c2ccc(Cl)s2)cc1C(=O)NCCc1ccccc1 | 6% | -0.62 | –
41 | CC(C)Oc1ccc(C(=O)N2CC[C@@H](c3ccccc3)S(=O)(=O)CC2)cc1 | -9% | 1.47 | –
42 | CCOc1ccc(Br)cc1C#N | -7% | 0.97 | –

Row | SMILES | % Inhibition | Z score | % Inhibition (2 µM)
43 | Cc1cc(CN2CCN(Cc3ccnc(C)c3)c3ccc(O)cc3C2)ccn1 | -6% | 1.07 | –
44 | O=C(CN1CN(c2ccccc2)C2(CCN(C(=O)c3cccc(C(F)(F)F)c3)CC2)C1=O)Nc1ccccc1 | 20% | -3.59 | –
45 | CC(C)Cc1cc(CNC(=O)[C@H]2C[C@H]3C=C[C@@H]2C3)no1 | 6% | -0.79 | –
46 | N#CCOC(=O)c1ccc(C(N)=O)cc1 | -10% | 0.84 | –
47 | COc1ccc2c(c1Cl)[C@@H](NCc1nonc1C)CCC2 | 1% | -0.24 | –
48 | Cc1ccccc1C(=O)Nc1ccccc1-c1nc2ccccc2[nH]c1=O | -18% | 3.47 | –
49 | Cc1ccc(N(CC#N)c2ncn[nH]2)c(C)c1 | -26% | 3.09 | –
50 | CC(C)(C)c1nc(CN2CCN(C(=O)c3c[nH]nn3)CC2)cs1 | 1% | -0.08 | –
51 | Cn1cc(-c2cc(CN3CCc4ccccc4[C@@H]3CO)on2)cn1 | -2% | 0.22 | –
52 | Cn1nnc2cc(S(=O)(=O)N3CCCC3(C)C)ccc21 | -9% | 0.79 | –
53 | CN(C(=O)OC(C)(C)C)C1(C(=O)NCCc2cncn2C)CCC1 | -7% | 1.47 | –
54 | CCCN(CC1CC1)C(=O)[C@@H](NC(N)=O)C(C)(C)C | -13% | 2.55 | –
55 | C=C(C)C[C@H](C)C(=O)Nc1ccn(C)c(=O)n1 | -13% | 1.79 | –
56 | CCOC(=O)Cc1csc(NC(=O)c2cnc(O[C@H]3CCOC3)c(Cl)c2)n1 | 2% | -0.42 | –
57 | CC1CCC(NC(=O)Cc2c[nH]c3ccccc23)CC1 (configuration not stated) | 2% | -0.24 | –
58 | Cc1nc(CCNC(=O)[C@@H]2Cc3ccccc3S(=O)(=O)N2)nc2c1CCC2 | 1% | -0.25 | –
59 | O=S(=O)(N1CCOCC1)N1CC[C@H](n2cnc3ccccc32)C1 | -18% | 2.33 | –
60 | COc1ccc(CCC(=O)NC2(c3cccs3)CCOCC2)cc1 | 2% | -0.31 | –
61 | Oc1cc(CC[C@H]2CCCCN2)cc(-c2cnc3ccccc3n2)c1 | 59% | -7.37 | –
62 | CCc1cc(NC(=O)Cc2ccc(OC)cc2)nc(C)n1 | -6% | 0.8 | –
63 | COc1cccc(OC)c1OCC1CN(CC(O)CN2CCOCC2)CCO1 (configuration not stated) | 6% | -0.63 | –

Row | SMILES | % Inhibition | Z score | % Inhibition (2 µM)
64 | Cc1nc(N)nc(C)c1CC(=O)NC(c1ccccn1)[C@H]1C[C@@H](O)C1 (some centres not stated) | -3% | 0.35 | –
65 | CC(C)Cc1cc(C(=O)N[C@]2(C(=O)O)CCCc3ccccc32)on1 | 0% | -0.01 | –
66 | C/C(=C\c1nsc(Nc2ccccc2)n1)NCCc1ccccc1 | -5% | 0.71 | –
67 | N#Cc1cccc(-c2c[nH]c(CNc3nc4cc(C(F)(F)F)ccc4s3)n2)c1 | 34% | -4.6 | –
68 | Cc1nc2n(n1)C[C@@H](NS(C)(=O)=O)CC2 | 28% | -3.21 | –
69 | CC(C)(C)c1ncc(C(=O)N2CCCN(CC(N)=O)CC2)s1 | -6% | 1.16 | –
70 | Cc1cc(F)c(S(N)(=O)=O)c(NCCCN2CCNC(=O)C2)c1 | 3% | -0.52 | –
71 | Cc1[nH][nH]c(=O)c1CC(=O)N[C@H]1CCC[C@H]1Cc1ccc(F)cc1 | -30% | 2.77 | –
72 | Cc1nc2c(c(=O)n1C)CN(C(=O)Cc1c[nH]c3ccccc13)C2 | -14% | 1.5 | –
73 | C=C(C)COc1ccc(C(=O)NCCNc2nc(C)cc(=O)[nH]2)cc1 | 13% | -1.65 | –
74 | CCNC(=O)C1CC(c2ccc(F)cc2)NS(=O)(=O)N1C (configuration not stated) | -18% | 1.61 | –
75 | Cc1ccc(-c2csc(NC(=O)c3csc(-c4nnc[nH]4)n3)n2)cc1 | -6% | 0.76 | –
76 | CCC(c1ccccc1)C1CCCN1C(=O)Cc1csc(NC(=O)C(C)C)n1 (configuration not stated) | -2% | 0.36 | –
77 | O=C(NCc1ccccc1F)[C@@H]1CCN(c2ccccc2Cc2ccccc2)C1=O | 10% | -1.51 | –
78 | Cc1nc[nH]c1C(=O)NCC1CCN(Cc2ccoc2)CC1 | 10% | -1.06 | –
79 | CCc1cc(N2CCc3nnc(Cc4cccnc4)n3CC2)n2nccc2n1 | -2% | 0.32 | –
80 | O=C(Nc1ccc2c(c1)OCO2)N1Cc2cccnc2C1 | -4% | 0.59 | –
81 | CCNC(=O)c1nn(CC2CC2)c2c1CN(Cc1ccco1)CC2 | -17% | 1.92 | –
82 | CC(C)(C)CN1C[C@@H](C(=O)O)C[C@@H](C(=O)Nc2ccc(F)cc2)C1 | 3% | -0.49 | –
83 | C[C@]1(O)C[C@@H](Nc2ccnc(C#N)c2)C1 | -2% | 0.36 | –
84 | COc1cc(C)ccc1Oc1ccc(F)cc1NC(=O)N1CC(C)OC(C)C1 (configuration not stated) | -7% | 1.22 | –
